Source: the supplement of paper PMC8728848
This is one part of the list.

How the values were obtained:
Assay in all cases: glycan array binding signal (z-score within array); higher = stronger binding
Conditions in all cases: glycan notation: IUPAC condensed, linker removed
[1] = molecular target: GlcNAc(b1-3)Gal(b1-4)GlcNAc(b1-3)Gal(b1-4)GlcNAc(b1-3)Gal(b1-4)GlcNAc(b1-3)Gal(b1-4)GlcNAc(b1-2)[GlcNAc(b1-3)Gal(b1-4)GlcNAc(b1-3)Gal(b1-4)GlcNAc(b1-3)Gal(b1-4)GlcNAc(b1-3)Gal(b1-4)GlcNAc(b1-6)]Man(a1-6)[GlcNAc(b1-3)Gal(b1-4)GlcNAc(b1-3)Gal(b1-4)GlcNAc(b1-3)Gal(b1-4)GlcNAc(b1-3)Gal(b1-4)GlcNAc(b1-2)Man(a1-3)]Man(b1-4)GlcNAc(b1-4)[Fuc(a1-6)]GlcNAc
Procedure, shortened: (§1)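 Negative Z-scores can be read as non-binding. The Z-score is calculated within each array and then averaged across arrays of one protein sequence at different concentrations or buffers and across linkers. Arrays, 3228 in all, were curated from the Consortium for Functional Glycomics database and kept only where the protein sequence was available.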

[2] = molecular target: GlcNAc(b1-3)Gal(b1-4)GlcNAc(b1-3)Gal(b1-4)GlcNAc(b1-3)GalNAc
Procedure, shortened: as §1

[3] = molecular target: GlcNAc(b1-3)Gal(b1-4)GlcNAc(b1-3)GalNAc
Procedure, shortened: as §1

[4] = molecular target: GlcNAc(b1-3)Gal(b1-4)GlcNAc(b1-3)[GlcNAc(b1-3)Gal(b1-4)GlcNAc(b1-3)]GalNAc
Procedure, shortened: as §1

[5] = molecular target: GlcNAc(b1-3)Gal(b1-4)GlcNAc(b1-6)[Gal(b1-3)]GalNAc
Procedure, shortened: as §1

[6] = molecular target: GlcNAc(b1-3)Gal(b1-4)GlcNAc(b1-6)[GlcNAc(b1-3)Gal(b1-3)]GalNAc
Procedure, shortened: as §1

[7] = molecular target: GlcNAc(b1-3)Gal(b1-4)GlcNAc(b1-6)[GlcNAc(b1-3)]Gal(b1-4)GlcNAc
Procedure, shortened: as §1

GlcNAc(b1-3)GalNAc = molecular target: GlcNAc(b1-3)GalNAc
Procedure, shortened: as §1

GlcNAc(b1-3)Man = molecular target: GlcNAc(b1-3)Man
Procedure, shortened: as §1

[8] = molecular target: GlcNAc(b1-3)[GlcNAc(b1-4)][GlcNAc(b1-6)]GlcNAc
Procedure, shortened: as §1

[9] = molecular target: GlcNAc(b1-3)[GlcNAc(b1-6)]Gal(b1-4)GlcNAc
Procedure, shortened: as §1

[10] = molecular target: GlcNAc(b1-3)[GlcNAc(b1-6)]GalNAc
Procedure, shortened: as §1

[11] = molecular target: GlcNAc(b1-4)Gal(b1-4)GlcNAc
Procedure, shortened: as §1

GlcNAc(b1-4)GlcNAc = molecular target: GlcNAc(b1-4)GlcNAc
Procedure, shortened: as §1

[12] = molecular target: GlcNAc(b1-4)GlcNAc(b1-4)GlcNAc
Procedure, shortened: as §1

[13] = molecular target: GlcNAc(b1-4)GlcNAc(b1-4)GlcNAc(b1-4)GlcNAc(b1-4)GlcNAc
Procedure, shortened: as §1

[14] = molecular target: GlcNAc(b1-4)GlcNAc(b1-4)GlcNAc(b1-4)GlcNAc(b1-4)GlcNAc(b1-4)GlcNAc
Procedure, shortened: as §1

[15] = molecular target: GlcNAc(b1-4)[GlcNAc(b1-6)]GalNAc
Procedure, shortened: as §1

[16] = molecular target: GlcNAc(b1-6)Gal(b1-4)GlcNAc
Procedure, shortened: as §1

GlcNAc(b1-6)GalNAc = molecular target: GlcNAc(b1-6)GalNAc
Procedure, shortened: as §1

[17] = molecular target: GlcNAc6S(b1-3)Gal(b1-4)GlcNAc
Procedure, shortened: as §1

Kdn(a2-3)Gal(b1-3)GalNAc = molecular target: Kdn(a2-3)Gal(b1-3)GalNAc
Procedure, shortened: as §1

Kdn(a2-3)Gal(b1-3)GlcNAc = molecular target: Kdn(a2-3)Gal(b1-3)GlcNAc
Procedure, shortened: as §1

Kdn(a2-3)Gal(b1-4)Glc = molecular target: Kdn(a2-3)Gal(b1-4)Glc
Procedure, shortened: as §1

Kdn(a2-3)Gal(b1-4)GlcNAc = molecular target: Kdn(a2-3)Gal(b1-4)GlcNAc
Procedure, shortened: as §1

[18] = molecular target: Kdn(a2-3)Gal(b1-4)[Fuc(a1-3)]GlcNAc
Procedure, shortened: as §1

Kdn(a2-6)Gal(b1-4)GlcNAc = molecular target: Kdn(a2-6)Gal(b1-4)GlcNAc
Procedure, shortened: as §1

[19] = molecular target: Man(a1-2)Man(a1-2)Man(a1-3)Man
Procedure, shortened: as §1

[20] = molecular target: Man(a1-2)Man(a1-2)Man(a1-6)[Man(a1-3)]Man
Procedure, shortened: as §1

Man(a1-2)Man(a1-3)Man = molecular target: Man(a1-2)Man(a1-3)Man
Procedure, shortened: as §1

[21] = molecular target: Man(a1-2)Man(a1-3)[Man(a1-2)Man(a1-6)]Man
Procedure, shortened: as §1

[22] = molecular target: Man(a1-2)Man(a1-3)[Man(a1-2)Man(a1-6)]Man(a1-6)[Man(a1-2)Man(a1-2)Man(a1-3)]Man
Procedure, shortened: as §1

[23] = molecular target: Man(a1-2)Man(a1-3)[Man(a1-2)Man(a1-6)]Man(a1-6)[Man(a1-2)Man(a1-2)Man(a1-3)]Man(b1-4)GlcNAc(b1-4)GlcNAc
Procedure, shortened: as §1

[24] = molecular target: Man(a1-2)Man(a1-3)[Man(a1-6)]Man(a1-6)[Man(a1-2)Man(a1-3)]Man(b1-4)GlcNAc(b1-4)GlcNAc
Procedure, shortened: as §1

[25] = molecular target: Man(a1-2)Man(a1-6)[Man(a1-3)]Man(a1-6)[Man(a1-2)Man(a1-2)Man(a1-3)]Man
Procedure, shortened: as §1

[26] = molecular target: Man(a1-2)Man(a1-6)[Man(a1-3)]Man(a1-6)[Man(a1-2)Man(a1-2)Man(a1-3)]Man(b1-4)GlcNAc(b1-4)GlcNAc
Procedure, shortened: as §1

Man(a1-3)[Man(a1-6)]Man = molecular target: Man(a1-3)[Man(a1-6)]Man
Procedure, shortened: as §1

[27] = molecular target: Man(a1-3)[Man(a1-6)]Man(a1-6)[Man(a1-2)Man(a1-3)]Man(b1-4)GlcNAc(b1-4)GlcNAc
Procedure, shortened: as §1

[28] = molecular target: Man(a1-3)[Man(a1-6)]Man(a1-6)[Man(a1-3)]Man
Procedure, shortened: as §1

[29] = molecular target: Man(a1-3)[Man(a1-6)]Man(a1-6)[Man(a1-3)]Man(b1-4)GlcNAc(b1-4)GlcNAc
Procedure, shortened: as §1

[30] = molecular target: Man(a1-3)[Man(a1-6)]Man(b1-4)GlcNAc(b1-4)GlcNAc
Procedure, shortened: as §1

[31] = molecular target: Man(a1-3)[Man(a1-6)]Man(b1-4)GlcNAc(b1-4)[Fuc(a1-6)]GlcNAc
Procedure, shortened: as §1

Man(a1-6)Man = molecular target: Man(a1-6)Man
Procedure, shortened: as §1

Man(b1-4)GlcNAc = molecular target: Man(b1-4)GlcNAc
Procedure, shortened: as §1

MurNAc(b1-4)GlcNAc = molecular target: MurNAc(b1-4)GlcNAc
Procedure, shortened: as §1

B1: HML-Native (Hypnea musciformis), P84871 (protein)
chain: QKFCTLDIAPVCCQIVIGGGMYTAGNACMCEGFVSGVGRCENPKECPCTREAQIPSCCSSRWGLVSVTGKCACDCLGGTVAFPEPCPSPY
glycan array binding signal (z-score) [1]: 2.23
glycan array binding signal (z-score) [2]: -0.212
glycan array binding signal (z-score) [3]: -0.183
glycan array binding signal (z-score) [4]: -0.243
glycan array binding signal (z-score) [5]: -0.272
glycan array binding signal (z-score) [6]: -0.185
glycan array binding signal (z-score) [7]: -0.344
glycan array binding signal (z-score) (GlcNAc(b1-3)GalNAc): -0.245
glycan array binding signal (z-score) (GlcNAc(b1-3)Man): -0.214
glycan array binding signal (z-score) [8]: -0.172
glycan array binding signal (z-score) [9]: -0.249
glycan array binding signal (z-score) [10]: -0.271
glycan array binding signal (z-score) [11]: -0.341
glycan array binding signal (z-score) (GlcNAc(b1-4)GlcNAc): -0.222
glycan array binding signal (z-score) [12]: -0.229
glycan array binding signal (z-score) [13]: -0.235
glycan array binding signal (z-score) [14]: -0.197
glycan array binding signal (z-score) [15]: -0.239
glycan array binding signal (z-score) [16]: -0.225
glycan array binding signal (z-score) (GlcNAc(b1-6)GalNAc): -0.185
glycan array binding signal (z-score) [17]: -0.254
glycan array binding signal (z-score) (Kdn(a2-3)Gal(b1-3)GalNAc): -0.219
glycan array binding signal (z-score) (Kdn(a2-3)Gal(b1-3)GlcNAc): -0.289
glycan array binding signal (z-score) (Kdn(a2-3)Gal(b1-4)Glc): -0.311
glycan array binding signal (z-score) (Kdn(a2-3)Gal(b1-4)GlcNAc): -0.192
glycan array binding signal (z-score) [18]: -0.206
glycan array binding signal (z-score) (Kdn(a2-6)Gal(b1-4)GlcNAc): -0.317
glycan array binding signal (z-score) [19]: -0.207
glycan array binding signal (z-score) [20]: -0.005
glycan array binding signal (z-score) (Man(a1-2)Man(a1-3)Man): -0.328
glycan array binding signal (z-score) [21]: -0.319
glycan array binding signal (z-score) [22]: -0.298
glycan array binding signal (z-score) [23]: -0.261
glycan array binding signal (z-score) [24]: -0.277
glycan array binding signal (z-score) [25]: -0.247
glycan array binding signal (z-score) [26]: -0.223
glycan array binding signal (z-score) (Man(a1-3)[Man(a1-6)]Man): -0.241
glycan array binding signal (z-score) [27]: -0.068
glycan array binding signal (z-score) [28]: -0.115
glycan array binding signal (z-score) [29]: -0.105
glycan array binding signal (z-score) [30]: 0.009
glycan array binding signal (z-score) [31]: 5.72
glycan array binding signal (z-score) (Man(a1-6)Man): -0.3
glycan array binding signal (z-score) (Man(b1-4)GlcNAc): -0.214
glycan array binding signal (z-score) (MurNAc(b1-4)GlcNAc): -0.318
